From PMC12689633
No constants are given. Whether binding was seen depends on the method and setting. In cells and extracts the contact can be indirect.

Molecular target: T1, p53-binding protein 1 (53BP1) (human (endogenous in RPE1)), Q12888
T1 chain: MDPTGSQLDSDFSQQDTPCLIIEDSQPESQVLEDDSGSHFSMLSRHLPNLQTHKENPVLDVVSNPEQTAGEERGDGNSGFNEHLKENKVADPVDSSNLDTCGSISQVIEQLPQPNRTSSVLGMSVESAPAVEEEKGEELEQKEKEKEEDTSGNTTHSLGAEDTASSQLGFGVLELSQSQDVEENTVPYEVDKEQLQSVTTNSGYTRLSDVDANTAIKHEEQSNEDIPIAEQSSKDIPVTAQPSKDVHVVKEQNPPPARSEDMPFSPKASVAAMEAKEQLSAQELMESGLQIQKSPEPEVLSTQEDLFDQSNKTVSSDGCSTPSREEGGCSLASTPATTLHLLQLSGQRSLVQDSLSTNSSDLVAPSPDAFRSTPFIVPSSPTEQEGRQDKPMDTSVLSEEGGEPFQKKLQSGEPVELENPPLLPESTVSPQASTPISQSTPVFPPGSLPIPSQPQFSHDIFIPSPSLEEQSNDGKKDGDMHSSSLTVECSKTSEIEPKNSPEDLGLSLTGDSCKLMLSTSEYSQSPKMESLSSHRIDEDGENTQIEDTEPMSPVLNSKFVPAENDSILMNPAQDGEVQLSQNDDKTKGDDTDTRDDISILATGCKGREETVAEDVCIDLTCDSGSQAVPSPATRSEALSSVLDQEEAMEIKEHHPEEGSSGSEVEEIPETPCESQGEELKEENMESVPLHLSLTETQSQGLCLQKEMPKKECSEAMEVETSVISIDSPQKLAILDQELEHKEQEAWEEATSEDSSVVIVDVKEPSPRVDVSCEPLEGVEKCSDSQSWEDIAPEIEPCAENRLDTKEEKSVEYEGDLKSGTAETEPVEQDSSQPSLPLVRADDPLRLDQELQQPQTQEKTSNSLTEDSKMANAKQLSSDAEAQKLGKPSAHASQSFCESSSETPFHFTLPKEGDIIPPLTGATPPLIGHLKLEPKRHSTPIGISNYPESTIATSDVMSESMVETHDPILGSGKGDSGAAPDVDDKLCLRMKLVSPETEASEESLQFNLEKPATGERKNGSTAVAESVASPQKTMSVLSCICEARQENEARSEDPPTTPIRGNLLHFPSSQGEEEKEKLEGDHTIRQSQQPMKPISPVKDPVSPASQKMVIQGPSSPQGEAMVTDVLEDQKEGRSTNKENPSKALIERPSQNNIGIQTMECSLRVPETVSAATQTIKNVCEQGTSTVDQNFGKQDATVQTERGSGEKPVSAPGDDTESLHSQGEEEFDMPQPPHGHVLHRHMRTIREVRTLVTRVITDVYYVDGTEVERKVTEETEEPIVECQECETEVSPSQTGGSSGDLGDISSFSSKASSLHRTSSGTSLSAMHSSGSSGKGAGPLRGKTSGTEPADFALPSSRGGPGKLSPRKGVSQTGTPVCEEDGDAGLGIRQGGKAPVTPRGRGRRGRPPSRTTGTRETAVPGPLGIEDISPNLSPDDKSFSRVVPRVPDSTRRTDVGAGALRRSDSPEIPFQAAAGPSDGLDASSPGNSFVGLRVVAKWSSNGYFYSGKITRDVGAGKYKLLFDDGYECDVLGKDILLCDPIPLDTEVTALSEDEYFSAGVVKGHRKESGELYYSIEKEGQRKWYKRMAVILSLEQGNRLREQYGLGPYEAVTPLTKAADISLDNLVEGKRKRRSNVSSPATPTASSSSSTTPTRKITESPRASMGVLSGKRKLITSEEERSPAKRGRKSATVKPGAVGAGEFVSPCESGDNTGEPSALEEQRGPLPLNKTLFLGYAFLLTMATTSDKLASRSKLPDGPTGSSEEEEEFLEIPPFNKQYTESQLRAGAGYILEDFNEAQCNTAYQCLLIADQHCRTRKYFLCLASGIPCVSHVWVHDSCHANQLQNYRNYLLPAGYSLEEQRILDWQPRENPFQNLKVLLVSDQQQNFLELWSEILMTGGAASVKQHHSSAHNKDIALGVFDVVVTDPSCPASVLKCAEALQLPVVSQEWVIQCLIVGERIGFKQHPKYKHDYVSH
Assay: co-IP; anti-53BP1 antibody and Protein A magnetic beads, 1-2 mg lysate of RPE1 or USP28∆ RPE1 cells with transgenes, arrested in mitosis with nocodazole (100 ng/ml, 8 or 16 h), in some panels also released 6 h into G1; 20 mM Tris-HCl pH 7.5, 50 mM NaCl, 0.5% Triton X-100, 5 mM EGTA, 1 mM DTT, 2 mM MgCl2, 4 °C; blots for USP28 or FLAG and p53
Conditions: remark: other sources report otherwise

B1: USP28^hIF1 (human isoform 1) transgene, Q96RU2-1 1-1077 (protein)
chain: MTAELQQDDAAGAADGHGSSCQMLLNQLREITGIQDPSFLHEALKASNGDITQAVSLLTDERVKEPSQDTVATEPSEVEGSAANKEVLAKVIDLTHDNKDDLQAAIALSLLESPKIQADGRDLNRMHEATSAETKRSKRKRCEVWGENPNPNDWRRVDGWPVGLKNVGNTCWFSAVIQSLFQLPEFRRLVLSYSLPQNVLENCRSHTEKRNIMFMQELQYLFALMMGSNRKFVDPSAALDLLKGAFRSSEEQQQDVSEFTHKLLDWLEDAFQLAVNVNSPRNKSENPMVQLFYGTFLTEGVREGKPFCNNETFGQYPLQVNGYRNLDECLEGAMVEGDVELLPSDHSVKYGQERWFTKLPPVLTFELSRFEFNQSLGQPEKIHNKLEFPQIIYMDRYMYRSKELIRNKRECIRKLKEEIKILQQKLERYVKYGSGPARFPLPDMLKYVIEFASTKPASESCPPESDTHMTLPLSSVHCSVSDQTSKESTSTESSSQDVESTFSSPEDSLPKSKPLTSSRSSMEMPSQPAPRTVTDEEINFVKTCLQRWRSEIEQDIQDLKTCIASTTQTIEQMYCDPLLRQVPYRLHAVLVHEGQANAGHYWAYIYNQPRQSWLKYNDISVTESSWEEVERDSYGGLRNVSAYCLMYINDKLPYFNAEAAPTESDQMSEVEALSVELKHYIQEDNWRFEQEVEEWEEEQSCKIPQMESSTNSSSQDYSTSQEPSVASSHGVRCLSSEHAVIVKEQTAQAIANTARAYEKSGVEAALSEVMLSPAMQGVILAIAKARQTFDRDGSEAGLIKAFHEEYSRLYQLAKETPTSHSDPRLQHVLVYFFQNEAPKRVVERTLLEQFADKNLSYDERSISIMKVAQAKLKEIGPDDMNMEEYKKWHEDYSLFRKVSVYLLTGLELYQKGKYQEALSYLVYAYQSNAALLMKGPRRGVKESVIALYRRKCLLELNAKAASLFETNDDHSVTEGINVMNELIIPCIHLIINNDISKDDLDAIEVMRNHWCSYLGQDIAENLQLCLGEFLPRLLDPSAEIIVLKEPPTIRPNSPYDLCSRFAAVMESIQGVSTVTVK
binding: no binding
